In PubChem BioAssay AID2675 (National Center for Advancing Translational Sciences (NCATS), 2010):
The campaign covered roughly 280,000 compounds. About 100 (0.036%) were called active. Inconclusive means that the source gave no clear call. Such entries were picked first, then a sample of the others. Calls follow the shape of the dose curve; as a rule, active = well fitted inhibition curve with a large enough effect in the signal ratio, with a control signal flat (not every such curve was filed as active); inconclusive = small, poorly fitted or top-dose-only effect, or effect the other way, or a change in a side signal; inactive = no such curve, though single readings can be large or run the other way; the % refers to the signal ratio. Potencies of inconclusive entries are doubtful fits and often do not repeat. A note “side channel” means that the fit belongs to a control or component signal, not to the main read-out.

Target: Muscleblind-like protein 1 (Homo sapiens) (UniProt Q9NR56)
Sequence of UniProt Q9NR56 (Q9NR56 whole entry, looked up): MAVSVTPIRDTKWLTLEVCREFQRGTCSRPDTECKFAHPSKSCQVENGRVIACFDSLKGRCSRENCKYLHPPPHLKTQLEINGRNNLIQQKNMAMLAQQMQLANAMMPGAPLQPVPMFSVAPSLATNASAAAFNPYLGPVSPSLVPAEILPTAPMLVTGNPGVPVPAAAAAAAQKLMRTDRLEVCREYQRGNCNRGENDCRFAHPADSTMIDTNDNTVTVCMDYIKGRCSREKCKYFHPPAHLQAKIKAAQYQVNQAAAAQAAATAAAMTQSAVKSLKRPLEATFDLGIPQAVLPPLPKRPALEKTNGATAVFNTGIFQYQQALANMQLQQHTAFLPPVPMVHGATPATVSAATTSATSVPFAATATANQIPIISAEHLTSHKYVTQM
Experiment: qHTS Assay for Inhibitors of MBNL1-poly(CUG) RNA binding
Settings: TR-FRET MBNL1-His/biotin-(CUG)12 binding, 665/545 ratio; series mostly up to 57.5 µM
Summary of the method: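 Inhibition of protein-RNA binding appears as loss of TR-FRET between terbium anti-His antibody on MBNL1-His and streptavidin-XL665 on biotin-(CUG)12. Activity is normalized to buffer-only and uninhibited-complex controls.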
Potency is read from the fitted curve at half-maximal effect; tags tell the direction and shape of the fitted curve or compound fluorescence and quenching.

Structure (SMILES) | Potency
O=C(c1cc(Cl)ccc1[N+](=O)[O-])n1cnc2ccccc21 | inconclusive: 44.7 µM [quencher, side channel, partial curve, poor fit]
COc1ccccc1NC(=O)C1=C(C)Nc2nc(CCCO)nn2C1c1cccnc1 (centres undefined) | inconclusive: 0.126 µM [quencher, side channel, full curve, poor fit]
C=CCN1C=C2C(=O)C(C)(OC(=O)CC)C(=O)C=C2C=C1CCCC (centres undefined) | inconclusive: 28.2 µM [quencher, side channel, single point]
COc1ccc(-c2cc(=O)oc3c(C)c(OCC(=O)NCCCn4ccnc4)ccc23)cc1 | inconclusive: 7.08 µM [quencher, side channel, full curve]
COc1ccccc1N1CCN(C(=O)c2cc3c(s2)-c2ccccc2OC3)CC1 | inactive
O=C(COC(=O)c1ccccc1C(=O)c1ccc(Cl)c([N+](=O)[O-])c1)NC1CC1 | inconclusive: 31.6 µM [quencher, side channel, single point]
O=C(Oc1ccc(C(=S)N2CCOCC2)cc1Cl)c1ccccc1F | inactive
CC1CCN(C(=O)CSc2ccc(-c3cccc([N+](=O)[O-])c3)nn2)CC1 | inconclusive: 4.47 µM [quencher, side channel, full curve]
CCn1c(SCC(=O)NCCOC)nc2sc(C)c(C)c2c1=O | inactive
CN1CCc2c(sc3c2c(=O)n(-c2ccc(Cl)cc2)c2nncn32)C1 | inconclusive: 12.6 µM [quencher, side channel, partial curve]
CN(C(=O)COc1ccc(S(=O)(=O)N2CCOCC2)cc1[N+](=O)[O-])C1CCS(=O)(=O)C1 (centres undefined) | inconclusive: 25.1 µM [quencher, side channel, partial curve]
O=C(c1cccc([N+](=O)[O-])c1)c1ccc2c(c1)C(=O)N(c1c[nH]c(=O)[nH]c1=O)C2=O | inconclusive: 11.2 µM [quencher, side channel, partial curve]
Cc1ccc(C)c(NS(=O)(=O)c2ccc(-c3ccc(=O)[nH]n3)o2)c1 | inconclusive: 39.8 µM [fluorescent, side channel, single point]
COc1ccccc1NS(=O)(=O)c1cccc(NC(=O)Nc2cccc(Cl)c2)c1 | inconclusive: 0.355 µM [fluorescent, side channel, full curve, poor fit]
COc1ccc(NC(=O)c2cc(=O)c3ccccc3o2)cn1 | inconclusive: 7.94 µM [quencher, side channel, partial curve]
Oc1ccc(/C=N/N2CCOCC2)c(O)c1O | inactive
Oc1c(Br)cc(Br)cc1/C=N/NC(=S)N[C@H]1CC2C=CC1C2 (some centres undefined) | inactive
O=C(Nc1ccccn1)c1ccc([N+](=O)[O-])cc1Cl | inconclusive: 3.16 µM [quencher, side channel, partial curve]
COc1ccc(C(=O)NC(=S)Nc2cccc3ncccc23)cc1[N+](=O)[O-] | inconclusive: 15.8 µM [quencher, side channel, partial curve]
COc1ccc(C(=O)N(Cc2ccco2)Cc2cccs2)c(O)c1 | inconclusive: 3.16 µM [fluorescent, side channel, partial curve]

Structure (SMILES) | Potency
CC(=O)N1CCN(c2nc3cc4c(cc3nc2NS(=O)(=O)c2ccccc2)OCCO4)CC1 | inconclusive: 11.2 µM [quencher, partial curve]
Cc1[nH]nc2c1C(=O)CCC2 | inconclusive: 3.98 µM [quencher, side channel, single point]
COc1ccc(N/N=C(\C#N)C(N)=O)cc1 | inconclusive: 3.55 µM [quencher, side channel, single point]
N#Cc1c(N)nc2c(c1N)CC(=O)N2c1ccc(Cl)cc1 | inconclusive: 35.5 µM [quencher, side channel, single point]
CN(Cc1ccccc1)C(=O)c1ccc(COc2ccccc2)cc1 | inactive
Cc1onc(-c2ccccc2Cl)c1C(=O)Nc1cccc(-c2cn3cccnc3n2)c1 | inconclusive: 28.2 µM [quencher, side channel, single point]
COc1ccc(/C=N/NC(=S)Nc2cccc(C(=O)O)c2)cc1 | inconclusive: 39.8 µM [quencher, side channel, single point]
Cc1[nH][nH]c(=O)c1C(c1ccc(Br)cc1)c1c(C)[nH][nH]c1=O | inactive
COC(=O)CSc1cc([N+](=O)[O-])ccc1NC(=O)OC | inconclusive: 8.91 µM [quencher, side channel, partial curve]
COc1ccc(C(=O)Nc2cccc3cccnc23)cc1OC | inconclusive: 39.8 µM [quencher, side channel, single point]
CCN1C/C(=C/c2cccs2)c2nc3ccccc3c(C(=O)O)c2C1 | inconclusive: 31.6 µM [quencher, side channel, partial curve]
O=C(N/N=C/c1ccc(Br)cc1)c1cc[n+]([O-])cc1 | inconclusive: 12.6 µM [quencher, side channel, partial curve]
Cc1ccc2oc(C(=O)NCC(c3ccco3)N3CCCC3)c(C)c2c1 (centres undefined) | inconclusive: 20 µM [fluorescent, side channel, single point]
COc1ccccc1-c1nc2c3ccccc3nc(=S)n2[nH]1 | inactive
CCOC(=O)Cc1csc(NC(=O)Cc2ccc([N+](=O)[O-])cc2)n1 | inconclusive: 0.158 µM [quencher, side channel, full curve, poor fit]
COc1ccc(NC(=O)COC(=O)CC23CC4CC(CC(C4)C2)C3)c([N+](=O)[O-])c1 | inconclusive: 0.708 µM [quencher, side channel, full curve]
Cc1c(C(=O)O)cccc1-c1ccc(/C=C2\SC(=O)NC2=O)o1 | inconclusive: 12.6 µM [quencher, side channel, partial curve]
CCC1=C([N+](=O)[O-])C(c2ccc3c(c2)OCO3)NC(=O)N1 (centres undefined) | inconclusive: 25.1 µM [quencher, side channel, partial curve]
O=C1NC(=S)SC1=C1CCCCCC1 | inconclusive: 39.8 µM [quencher, side channel, single point]
CC1(C)CC(=O)C(C(C2=C(O)CC(C)(C)CC2=O)c2cccc(O)c2)C(=O)C1 (centres undefined) | inactive

Structure (SMILES) | Potency
O=C1C(C=NCc2ccncc2)=C(O)c2ccccc21 | inconclusive: 15.8 µM [quencher, side channel, partial curve]
CSCC[C@H](NC(=O)Cc1c(C)c2c(cc(C)c3c(C)coc32)oc1=O)C(=O)O | inconclusive: 12.6 µM [quencher, side channel, partial curve]
COc1cc(/C=N/NC(=O)c2cccnc2)cc2c1OCO2 | inconclusive: 22.4 µM [quencher, side channel, partial curve]
O=C(N/N=C\c1ccc(Br)o1)C1COc2ccccc2O1 (centres undefined) | inactive
CCN(CC)CCCN(Cc1cc2cc3c(cc2[nH]c1=O)OCO3)C(=S)NCCCOC | inactive
NC(=O)C1CCN(c2cc(N3CCOCC3)ccc2[N+](=O)[O-])CC1 | inconclusive: 15.8 µM [quencher, side channel, partial curve]
COc1ccc(-c2cnnc(N/N=C/c3ccc(C)o3)n2)cc1 | inconclusive: 3.55 µM [quencher, side channel, full curve]
Nc1ncc([N+](=O)[O-])cc1Br | inconclusive: 11.2 µM [quencher, partial curve]
Cn1nnnc1SCc1cccc2ccccc12 | inconclusive: 31.6 µM [quencher, side channel, single point]
CCCCNC(=O)/C=C/c1cccs1 | inconclusive: 2 µM [quencher, side channel, single point]
CCOCCCNC(=O)/C(C#N)=C/c1ccc(-c2ccc(S(=O)(=O)N3CCOCC3)cc2)o1 | inconclusive: 15.8 µM [quencher, side channel, partial curve]
COc1ccc2ccccc2c1/C=N/NC(=O)c1cc(C)[nH]n1 | inconclusive: 11.2 µM [quencher, side channel, partial curve]
Cc1ccc2c(c1)C(=O)C(=O)N2CCOc1ccccc1 | inconclusive: 15.8 µM [quencher, side channel, partial curve]
COc1cc(C(CC(=O)N2CCCC2)c2c(OC)cc(OC)c3c(-c4ccccc4)cc(=O)oc23)cc(OC)c1OC (centres undefined) | inconclusive: 3.98 µM [quencher, side channel, full curve, poor fit]
Cc1nn(C)c(C)c1CN(C)C(=O)C1(C)CC1(Br)Br (centres undefined) | inactive
CN1CCN(S(=O)(=O)c2ccc(NC(=O)COc3ccccc3Cl)cc2)CC1 | inconclusive: 7.94 µM [inhibitor, single point]
COc1ccc(-c2nnc(SCC(=O)NCC3CCCO3)o2)cc1 (centres undefined) | inactive
O=C(NNC(=O)c1cccc([N+](=O)[O-])c1)c1ccncc1 | inconclusive: 28.2 µM [quencher, side channel, partial curve]
CCC(=O)N1CCN(c2ccc(NC(=O)COc3ccccc3[N+](=O)[O-])cc2)CC1 | inconclusive: 6.31 µM [quencher, side channel, full curve, poor fit]
